We go through one compound from patent US20230190870A1, “Method for Treating Lysosomal Storage Diseases with Histatin Peptides” (THE BOARD OF TRUSTEES OF THE UNIVERSITY OF ILLINOIS, priority 2020, published 2023).

This assay concerns the target T1, TMEM97 (108-176) (Homo sapiens, UniProt Q5BJF2).
T1 construct: Three peptides, TMEM97 (108-176), TMEM97 (108-143) and TMEM97 (144-176), were synthesized; made in house; host or cells: chemical solid-phase synthesis (Fmoc, Wang resin)
The assay is described as follows: Isothermal titration calorimetry, TMEM97 (108-176). The conditions noted are these: ITC. The class given is binding. The method, then: Isothermal Titration Calorimetry (ITC). The three synthesized peptides, TMEM97 (108-176), TMEM97 (108-143) and TMEM97 (144-176) were prepared in ITC buffer (10 mM Tris, pH 7.4, 150 mM NaCl, 0.05% polysorbate 20) at 40 μM concentration and placed in the sample cell. All ITC experiments were performed while stirring at 395 rpm, in ITC buffer at 25° C. using a VP-ITC titration microcalorimeter from MicroCal™, LLC (Northampton, Mass.). The microsyringe was loaded with a Histatin 1 solution (500 μM in ITC buffer). All titrations were conducted using an initial injection of 2.5 μL followed by 35 identical injections of 5 μL with a duration of 16 seconds (per injection) and a spacing of 210 seconds between injections. The buffer control titration (Histatin 1 into buffer) signals were subtracted from the experimental data. The collected data were evaluated using NITPIC (NIH), SEDPHAT (NIH), and GUSSI (NIH).
To determine more precisely which segment of TMEM97 is necessary for binding of Hst1, multiple synthetic fragments of TMEM97 were generated (Table 6) and binding to Hst1 was tested using SPR. […] Smaller fragments of the C-terminal of TMEM97 were then constructed to represent the (predicted) luminal (108-143) and cytoplasmic (144-176) exposed segments of the C-terminus of TMEM97 based on modeling experiments previously described. […]

Square brackets hold non-standard residues; d marks the D form. Peptide text beside a SMILES is read from it. pS = N[C@@H](COP(=O)(O)O)C(=O)O

`CC(C)C[C@H](NC(=O)[C@H](Cc1ccc(O)cc1)NC(=O)[C@H](CC(N)=O)NC(=O)[C@H](CO)NC(=O)CNC(=O)[C@H](Cc1ccc(O)cc1)NC(=O)[C@H](CC(=O)O)NC(=O)CNC(=O)[C@H](Cc1ccc(O)cc1)NC(=O)[C@H](Cc1ccccc1)NC(=O)[C@@H]1CCCN1C(=O)[C@H](Cc1ccccc1)NC(=O)[C@H](CCC(=O)O)NC(=O)[C@H](CCCNC(=N)N)NC(=O)[C@H](Cc1c[nH]cn1)NC(=O)[C@H](CO)NC(=O)[C@H](Cc1c[nH]cn1)NC(=O)[C@H](Cc1c[nH]cn1)NC(=O)[C@H](CCCCN)NC(=O)[C@H](CCC(=O)O)NC(=O)[C@H](Cc1c[nH]cn1)NC(=O)[C@H](Cc1ccccc1)NC(=O)[C@H](CCCCN)NC(=O)[C@H](CCCNC(=N)N)NC(=O)[C@H](CCCNC(=N)N)NC(=O)[C@H](Cc1ccc(O)cc1)NC(=O)CNC(=O)[C@H](Cc1c[nH]cn1)NC(=O)[C@H](Cc1c[nH]cn1)NC(=O)[C@H](CCCNC(=N)N)NC(=O)[C@H](CCCCN)NC(=O)[C@H](CCC(=O)O)NC(=O)[C@H](Cc1c[nH]cn1)NC(=O)[C@H](COP(=O)(O)O)NC(=O)[C@@H](N)CC(=O)O)C(=O)N[C@@H](Cc1ccc(O)cc1)C(=O)N[C@@H](CC(=O)O)C(=O)N[C@@H](CC(N)=O)C(=O)O` [Hst1] (H-D[pS]HEKRHHGYRRKFHEKHHSHREFPFYGDYGSNYLYDN-OH; N-terminus and C-terminus assumed) yielded a ΔH of -4.9 ± 10.1 kcal/mol.
